The supplement of paper PMC12067230
Single values of this set are uncertain.

assay: amyloid nucleation score relative to library mode (yeast Sup35 reporter selection) (log enrichment difference); higher = more amyloid nucleation; sequences are the first 22 residues of the Bri2 peptide extended by up to 12 random residues; conditions: random library (experiment): 1;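 active = nucleation score significantly above 0 at FDR 0.05; inactive = not significantly above 0 or absent from output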
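Further: [psi-pin-] Saccharomyces cerevisiae expressing SupN fusions, induced by 100 µM Cu2SO4, selected 7 d at 30 °C without adenine and uracil, scored by deep sequencing of output versus input.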

Sequence	amyloid nucleation score
EASNCFAIRHFENKFAVETLICYVYSSIYESPLW	inactive
EASNCFAIRHFENKFAVETLICYVYWNIAGMWAR	inactive
EASNCFAIRHFENKFAVETLICYWCKMSAELVEW	inactive
EASNCFAIRHFENKFAVETLICYWCVC	7.33
EASNCFAIRHFENKFAVETLICYWFTLSPIGRVW	inactive
EASNCFAIRHFENKFAVETLICYWLKCGGNVLWK	-0.386
EASNCFAIRHFENKFAVETLICYWLTASFMWDRW	inactive
EASNCFAIRHFENKFAVETLICYWPRSQG	6.15
EASNCFAIRHFENKFAVETLICYWQHSRHQSMLW	inactive
EASNCFAIRHFENKFAVETLICYWWSYLLCTGWR	inactive
EASNCFAIRHFENKFAVETLICYYAMLKGFICAL	-0.405
EASNCFAIRHFENKFAVETLICYYDNLVLFVGAA	-0.302
EASNCFAIRHFENKFAVETLICYYGIPHGCCYQW	5.43
EASNCFAIRHFENKFAVETLICYYGRGSVVGWKT	2.97
EASNCFAIRHFENKFAVETLICYYGRV	1.56
EASNCFAIRHFENKFAVETLICYYQRLKNRRVTP	inactive
EASNCFAIRHFENKFAVETLICYYTSWFVLCHSR	inactive
EASNCFAIRHFENKFAVETLICYYVESQIGKLLQ	inactive
EASNCFAIRHFENKFAVETLICYYVKNGLTYKLP	inactive
EASNCFAIRHFENKFAVETLICYYVVGSEMQSSG	5.98

same assay, conditions: random library (experiment): 2

Sequence	amyloid nucleation score
EASNCFAIRHFENKFAVETLICYVYHVWCAFRPY	inactive
EASNCFAIRHFENKFAVETLICYWDIFGIVKRLL	inactive
EASNCFAIRHFENKFAVETLICYWHVMVDIYHGI	4.46
EASNCFAIRHFENKFAVETLICYWKTFVLLHVVV	inactive
EASNCFAIRHFENKFAVETLICYWNSSDQLNSI	6.15
EASNCFAIRHFENKFAVETLICYWRAGDNEGTSK	inactive
EASNCFAIRHFENKFAVETLICYWRLANF	inactive
EASNCFAIRHFENKFAVETLICYWSP	5.67
EASNCFAIRHFENKFAVETLICYWVRNCWVNVMD	inactive
EASNCFAIRHFENKFAVETLICYWYFQSGVESAV	inactive
EASNCFAIRHFENKFAVETLICYWYSMFEYDTFL	inactive
EASNCFAIRHFENKFAVETLICYY	inactive
EASNCFAIRHFENKFAVETLICYYASVTRLGRFC	inactive
EASNCFAIRHFENKFAVETLICYYDLFAGYSSKG	inactive
EASNCFAIRHFENKFAVETLICYYEDEISQELM	inactive
EASNCFAIRHFENKFAVETLICYYGCQS	5.65
EASNCFAIRHFENKFAVETLICYYGSECRSCFHS	6.67
EASNCFAIRHFENKFAVETLICYYHY	2.68
EASNCFAIRHFENKFAVETLICYYIVFSERSFVE	inactive
EASNCFAIRHFENKFAVETLICYYLPRMSRSVHL	inactive
EASNCFAIRHFENKFAVETLICYYM	4.41
EASNCFAIRHFENKFAVETLICYYRFNVFISGRD	inactive
EASNCFAIRHFENKFAVETLICYYRRFAYGCYCV	inactive
EASNCFAIRHFENKFAVETLICYYVDLVGTDGDR	inactive
EASNCFAIRHFENKFAVETLICYYVTIAHVRAC	-0.223
EASNCFAIRHFENKFAVETLICYYYLLRTLVLNA	-0.191

same assay, conditions: random library (experiment): 3

Sequence	amyloid nucleation score
EASNCFAIRHFENKFAVETLICYVYPACRGGSCV	8.77
EASNCFAIRHFENKFAVETLICYW	5.74
EASNCFAIRHFENKFAVETLICYWDSDGL	6.38
EASNCFAIRHFENKFAVETLICYWGSWK	2.38
EASNCFAIRHFENKFAVETLICYWILCVDGEACV	1.67
EASNCFAIRHFENKFAVETLICYWIWYNQVSLRV	inactive
EASNCFAIRHFENKFAVETLICYYESSN	4.66
EASNCFAIRHFENKFAVETLICYYGP	4.38
EASNCFAIRHFENKFAVETLICYYRVLIGPHFWV	inactive
EASNCFAIRHFENKFAVETLICYYSLFC	inactive
EASNCFAIRHFENKFAVETLICYYVQFVCRIDLS	inactive
